Several values for one entry are separate records, joined by “and”; a condition that tells them apart may be missing. Equal values may be shown once. About 5,000 (1.2%) of roughly 410,000 compounds were called active. Inconclusive means that the source gave no clear call. Such entries were picked first, then a sample of the others. Calls come from the whole dose curve; as a rule, active = well fitted inhibition curve with a large enough effect; inconclusive = small, poorly fitted or top-dose-only effect; inactive = no such curve, though single readings can be large or run the other way. A potency beside an inconclusive call is a rough fit, not a confirmed value.
Test: qHTS for Inhibitors of TGF-b; note: nearly all actives have a fitted effect of over 65% in size
Conditions: HepG2 CAGA-GFP TGF-b/SMAD3 reporter, GFP fluorescence, 18 h, TGF-beta stimulated, 500 pg/mL final; series mostly up to 46.1 µM; activity, negative = inhibition: at the top concentration
Procedure, shortened: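 First, reporter cells (HEPG2 CAGA-GFP) rested 2 h at 37 degrees C. Next, compounds were pinned in and TGF-beta added to 500 pg/mL final. After 18 h, GFP was imaged per cell and summed per well.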
% is set by controls: 0 for no effect and ±100 for the full control effect; potency is the fitted concentration of half-maximal effect; tags give direction and shape of the fitted curve.

SMILES	Potency	activity, negative = inhibition
COc1ccc(S(=O)(=O)Nc2cccc3c2O[C@H](CN(C)CC2CCCCC2)[C@@H](C)CN([C@H](C)CO)C3=O)cc1	inconclusive: 6.31 µM [inhibitor, single point]	–
COc1ccc(C2CC(c3ccccc3C(F)(F)F)=NN2c2ccc(S(N)(=O)=O)cc2)cc1 (centres undefined)	inconclusive: 35.5 µM [inhibitor, single point]	–
COC(=O)c1ccc(C)c(NS(=O)(=O)c2ccc(OC)cc2)c1	inconclusive: 7.08 µM [inhibitor, full curve]	–
Cc1cccc(OCCNc2ncccc2[N+](=O)[O-])c1	–	inactive: 5.62%
CCCC(=O)Nc1nc(-c2ccc(OC)cc2)cs1	–	inactive: 0%
Cc1nc(C)c(-c2ccc(SCC(=O)Nc3cccc(F)c3)nn2)s1	inconclusive: 3.98 µM [inhibitor, partial curve]	–
CC1=C(C(=O)N(C(C)C)C(C)C)CC(CC(=O)NC(c2ccccc2)c2ccccc2)C(=O)N1CCC1=CCCCC1 (centres undefined)	active: 11.2 µM	–
Cc1cccc(C(O)c2ncc(-c3ccc(F)cc3)[nH]2)c1C (centres undefined)	–	inactive: 7.19%
O=C1CS(=O)(=O)C2(C(=O)Nc3ccccc32)N1c1cccc(Cl)c1 (centres undefined)	inconclusive: 22.4 µM [inhibitor, single point]	–
Nc1cccc[n+]1C(c1ccnc2ccccc12)[n+]1ccccc1N	inconclusive: 35.5 µM [inhibitor, single point]	–
O=C1C=C(c2ccc3ccccc3c2)C[C@@H](c2ccc(F)cc2)C1	inconclusive: 3.55 µM [inhibitor, single point]	–
O=C(O)C1C2C=CC(C2)C1C(=O)NC1CCS(=O)(=O)C1 (centres undefined)	inconclusive: 0.112 µM [inhibitor, full curve, poor fit]	–
Cc1cccc(C)c1OCc1cc(=O)n2c(-c3ccccc3)csc2n1	active: 10 µM	–
Cc1nnc(SCC(=O)N2CCN(S(=O)(=O)c3ccccc3)CC2)s1	inconclusive: 14.1 µM [inhibitor, single point]	–
Cn1nc(-c2ccc(OCC(=O)Nc3cccc(C(F)(F)F)c3)cc2)c2ccccc2c1=O	inconclusive: 2.51 µM [inhibitor, partial curve, poor fit]	–
O=C1CNC(=S)N1C(CO)c1ccccc1 (centres undefined)	–	inactive: 0.85%
Cc1ccc(C(=O)Nc2ccc(F)cc2)cc1S(=O)(=O)N1CCCCCC1	inconclusive: 35.5 µM [inhibitor, single point]	–
Cc1ccc(NC(=O)CSc2nnc(CNC(=O)c3ccco3)o2)cc1Cl	–	inactive: 5.13%
CSc1cccc(NS(=O)(=O)c2ccccc2)c1	inconclusive: 17.8 µM [inhibitor, single point]	–
COc1ccc(OC)c(-c2oc3ccccc3c(=O)c2O)c1	inconclusive: 12.6 µM [inhibitor, single point]	–
C/C=C/c1ccc(OCCCCOc2ccc(OC)cc2)c(OC)c1	–	inactive: -12.6%
Oc1[nH]c2ccc(Br)cc2c1N=NC(=S)Nc1ccc(F)cc1	active: 10 µM	–
CC(C)c1ccc2oc(-c3ccc(Cl)c(NC(=O)c4cccs4)c3)nc2c1	–	inactive: -2.83%

SMILES	Potency	activity, negative = inhibition
O=C(N[C@@H](Cc1ccccc1)C(=O)OCc1ccccc1)c1nc[nH]c1C(=O)N1CCN(c2ccccc2)CC1	inconclusive: 35.5 µM [inhibitor, single point]	–
CCN(C(=O)c1ccc2c(c1)N(Cc1cccc(Cl)c1)C(=O)c1ccccc1S2=O)c1ccccc1 (centres undefined)	inconclusive: 22.4 µM [inhibitor, partial curve, poor fit]	–
COc1ccc(Cc2nnc(NC(=O)Nc3ccc(F)cc3)s2)cc1OC	inconclusive: 35.5 µM [inhibitor, single point]	–
O=C(Cc1ccc(Cl)c(Cl)c1)Nc1ccc(S(=O)(=O)Nc2ncccn2)cc1	–	inactive: -11.2%
COc1ccc(C(c2nnnn2C(C)(C)C)N2CCN(C/C=C/c3ccccc3)CC2)cc1 (centres undefined)	inconclusive: 20 µM [inhibitor, single point]	–
Fc1ccc(-c2nc3ccccc3[nH]2)cc1	inconclusive: 35.5 µM [inhibitor, single point]	–
N#Cc1ccc(C23CC4(C2)[C@H](CN(Cc2ccc(-c5ccccc5)cc2)[C@@H]4c2ccccc2)C3c2ccc(Cl)nc2)cc1 (some centres undefined)	inconclusive: 0.501 µM [inhibitor, partial curve, poor fit]	–
CCOc1ccccc1NC(=O)CN(c1ccc(C)cc1)S(=O)(=O)c1c(C)n[nH]c1C	inconclusive: 35.5 µM [inhibitor, single point]	–
COc1ccc(-c2csc(NC(=O)CCS(=O)(=O)c3ccccc3)n2)c(OC)c1	inconclusive: 11.2 µM [inhibitor, partial curve, poor fit]	–
O=C(CN1CCCCCC1)Nc1ccc(Oc2ccccc2)cc1	inconclusive: 22.4 µM [inhibitor, single point]	–
COCCCNC(=O)c1ccc(Cn2c(=O)c3ccccc3n(CC(N)=O)c2=O)cc1	–	inactive: -5.19%
COc1ccc(/C=C/C(=O)c2cc(F)ccc2OC(=O)c2ccccc2OC)cc1OC	active: 11.2 µM	–
CC(=O)c1ccc(NC(=O)C2=CC(c3ccc4c(c3)OCO4)=NS(=O)(=O)N2C)cc1	inconclusive: 22.4 µM [inhibitor, single point] and inconclusive: 35.5 µM [inhibitor, single point]	–
O=C(N/N=C/c1cccnc1)NC12CC3CC(CC(C3)C1)C2	–	inactive: 0%
Cc1cccc(NC(=S)Nc2ccc(Cl)c(Cl)c2)c1	inconclusive: 35.5 µM [inhibitor, single point]	–
CCOC(=O)c1c(-c2ccc(C)o2)csc1NC(=O)CSc1nnc(C)s1	inconclusive: 8.91 µM [inhibitor, partial curve, poor fit]	–
COc1cccc2sc(N(CCN(C)C)C(=O)c3ccc4c(c3)CCCC4)nc12	–	inactive: -26.1%
Cc1cc[n+](CCC2CCCCC2)cc1	inconclusive: 5.01 µM [inhibitor, partial curve]	–
Cc1[nH]c(C)c(S(=O)(=O)N2CCN(c3ccccc3F)CC2)c1C(=O)N1CCCCC1	–	inactive: -2.36%
CN(CC(=O)Nc1ccc(F)cc1)CC(=O)NC1CCCCC1	–	inactive: 3.17%
Fc1cc(Br)ccc1NC(=S)NCCc1ccccc1	inconclusive: 35.5 µM [inhibitor, single point]	–
Cc1ccc(C(=O)Nc2cccc(C(=O)N/N=C/c3ccccc3F)c2)cc1	inconclusive: 0.316 µM [inhibitor, full curve, poor fit]	–
CC(C)NC(=O)c1ccc(-c2cccc(C(F)(F)F)c2)o1	inconclusive: 2.51 µM [inhibitor, single point]	–

SMILES	Potency	activity, negative = inhibition
COc1ccc(OC)c(CCNc2ncnc3onc(-c4ccc(F)cc4)c23)c1	inconclusive: 35.5 µM [inhibitor, single point]	–
CCc1cccc(C)c1NC(=O)CN(C)Cc1ccc(Br)cc1	–	inactive: -8.51%
Cc1nc2ccc([N+](=O)[O-])cc2c(=O)n1Cc1cccc(Br)c1	inconclusive: 14.1 µM [inhibitor, single point]	–
O=C(O)c1ccc(C2NCC(c3ccccc3Cl)c3c2[nH]c2ccccc32)cc1 (centres undefined)	–	inactive: 2.16%
COc1ccccc1N1C(=NC(=O)CCC2CCCC2)SC2CS(=O)(=O)CC21 (centres undefined)	–	inactive: -6.71%
CS(=O)(=O)N(CC(=O)NCCSCc1ccccc1Cl)c1ccc(F)cc1	–	inactive: -2.76%
CCc1cccc(NC(=O)c2cc(S(=O)(=O)N(C)C)ccc2N2CCCC2)c1	inconclusive: 20 µM [inhibitor, single point]	–
COc1ccccc1NC(=O)Nc1nc(CC(=O)NCc2ccc(F)cc2)cs1	–	inactive: -1.64%
O=C(c1ccc(Cn2cc([N+](=O)[O-])cn2)o1)N1N=C(C(F)F)CC1(O)C(F)F (centres undefined)	–	inactive: 0.168%
O=C1CCCc2cc(S(=O)(=O)NCC3CCC(C(=O)Nc4ccccc4F)CC3)ccc2N1 (centres undefined)	–	inactive: -24.6%
CCCCCCCCCCS(=O)(=O)N/N=C/c1ccc(O)cc1	active: 12.6 µM	–
Cc1nc(N2CCOCC2)sc1C(=O)NN	inconclusive: 35.5 µM [inhibitor, single point]	–
CCCCNc1c(-c2cccc(-c3cc(C(C)=O)cs3)c2)nc2ccc(C)cn12	inconclusive: 35.5 µM [inhibitor, single point]	–
O=C(CNC(=O)c1ccccc1)OC(C(=O)Nc1cc(C(F)(F)F)ccc1Cl)c1ccccc1 (centres undefined)	inconclusive: 35.5 µM [inhibitor, single point]	–
COC(=O)c1cc2ccccc2c(-c2c(O)ccc3ccccc23)c1O	inconclusive: 35.5 µM [inhibitor, single point]	–
CCOc1ccccc1NC(=O)C1C(c2ccccc2)C1(Cl)Cl (centres undefined)	inconclusive: 20 µM [inhibitor, single point]	–
COc1ccccc1CCC(=O)Nc1nccs1	–	inactive: 12%
Cc1cc(C(=O)CSc2nc3ccc(Cl)cc3[nH]2)c(C)n1CC1CCCO1 (centres undefined)	inconclusive: 35.5 µM [inhibitor, single point]	–
COc1ccc(-c2nc3ccccc3nc2-c2ccc(OC)cc2)cc1	inconclusive: 35.5 µM [inhibitor, single point]	–
COc1ccc(OC)c(NC(=O)CCN2CCN(c3ccccc3)CC2)c1	–	inactive: -5.7%
CCCCCn1c(=O)[nH]c2cc(C(=O)N3CCN(c4cccc(C)c4)C(C)C3)ccc2c1=O (centres undefined)	inconclusive: 7.08 µM [inhibitor, partial curve, poor fit]	–
O=C(O)c1ccc(-n2c(-c3ccc(Br)cc3)n[nH]c2=S)cc1	inconclusive: 2.24 µM [inhibitor, partial curve, poor fit]	–
Cc1sc2nc3ccc(N4CCCC4)nn3c(=O)c2c1C	inconclusive: 11.2 µM [inhibitor, single point]	–

From PubChem BioAssay AID588855 (National Center for Advancing Translational Sciences (NCATS), 2011)
